PubChem BioAssay AID1768 (National Center for Advancing Translational Sciences (NCATS), 2009)
The whole screen tested about 270,000 compounds, of which about 620 (0.23%) were called active. The shares of active, inactive and inconclusive entries below differ from those in the screen. Calls follow the shape of the dose curve; as a rule, active = well fitted inhibition curve with a large enough effect in the polarisation, with a control signal flat (not every such curve was filed as active); inconclusive = small, poorly fitted or top-dose-only effect, or effect the other way, or a change in a side signal; inactive = no such curve, though single readings can be large or run the other way; the % refers to the polarisation. A potency beside an inconclusive call is a rough fit, not a confirmed value. A note “side channel” means that the fit belongs to a control or component signal, not to the main read-out.

biological target: Menin (Homo sapiens) (UniProt O00255); assay: qHTS Assay for Inhibitors Targeting the Menin-MLL Interaction in MLL Related Leukemias: Competition With Texas Red Labeled MLL-derived Mutant Peptide; settings: fluorescence polarization; FP activity change, negative = inhibition: at 61.6 µM (top of the series); as to FP activity change, negative = inhibition: % of control where 0% means no effect
Potency is read from the fitted curve at half-maximal effect; tags tell the direction and shape of the fitted curve or compound fluorescence and quenching.

UniProt O00255, sequence (O00255 whole entry, looked up): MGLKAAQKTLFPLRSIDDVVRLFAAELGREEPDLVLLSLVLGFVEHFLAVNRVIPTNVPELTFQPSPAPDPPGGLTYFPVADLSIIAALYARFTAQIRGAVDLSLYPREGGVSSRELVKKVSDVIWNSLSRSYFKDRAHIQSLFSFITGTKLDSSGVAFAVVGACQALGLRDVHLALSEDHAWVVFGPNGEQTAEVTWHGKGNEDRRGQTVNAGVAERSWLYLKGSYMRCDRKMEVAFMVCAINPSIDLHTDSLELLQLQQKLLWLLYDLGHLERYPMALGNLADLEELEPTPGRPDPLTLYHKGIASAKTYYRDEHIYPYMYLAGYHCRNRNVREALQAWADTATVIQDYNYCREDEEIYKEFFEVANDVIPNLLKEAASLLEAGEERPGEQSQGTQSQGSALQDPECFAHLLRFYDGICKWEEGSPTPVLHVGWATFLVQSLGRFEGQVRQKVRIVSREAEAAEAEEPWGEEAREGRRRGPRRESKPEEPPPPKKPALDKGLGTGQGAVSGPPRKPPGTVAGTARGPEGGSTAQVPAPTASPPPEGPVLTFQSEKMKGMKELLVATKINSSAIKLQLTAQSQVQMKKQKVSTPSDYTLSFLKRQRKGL

SMILES	FP activity change, negative = inhibition	Potency
OC[C@@H]1O[C@@H](Oc2ccc(O)cc2)[C@H](O)[C@@H](O)[C@@H]1O	inactive: 5.02%	
C/C(Cl)=C\Cn1c(O)c(N=NC(N)=S)c2cc(Br)ccc21		inconclusive: 10 µM [quencher, side channel, partial curve]
COc1ccc(/C=N\NC(=O)c2ccccc2F)cc1COc1ccc(F)cc1		inconclusive: 39.8 µM [fluorescent, side channel, single point]
COc1ccc(OCc2nc(N)nc(Nc3ccccc3)n2)cc1	inactive: 10.3%	
CCS(=O)(=O)c1nc(S(=O)(=O)c2ccc(Cl)cc2)c(NCCOC)s1		inconclusive: 31.6 µM [fluorescent, side channel, single point]
COCCOC(=O)c1c(NC(=O)CNCc2ccco2)sc(C(N)=O)c1C		inconclusive: 10 µM [quencher, side channel, partial curve]
COc1ccc(-c2cc(=O)c3ccccc3o2)cc1OC		inconclusive: 39.8 µM [inhibitor, single point]
Cc1ccc(NC(=S)N2CCC(NC(=O)c3ccccc3)CC2)cc1		inconclusive: 4.47 µM [quencher, side channel, single point]
CCN1C(=O)/C(=C/C=C2/SCCN2C)SC1=S		inconclusive: 39.8 µM [inhibitor, single point]
O=C(/C=C/c1cccs1)N1CCN(c2ccccc2)CC1		inconclusive: 12.6 µM [inhibitor, partial curve]
O=c1oc2c(O)cccc2cc1-c1nc2ccccc2[nH]1		inconclusive: 12.6 µM [quencher, side channel, partial curve]
CC(=O)OCC(=O)[C@H]1CC[C@H]2[C@@H]3CCC4=CC(=O)CC[C@]4(C)[C@H]3CC[C@]12C		inconclusive: 11.2 µM [fluorescent, side channel, partial curve]
COC(=O)c1ccc(C(=O)NC2CCCc3c2cnn3-c2ccc(C)c(C)c2)cc1 (configuration not stated)		inconclusive: 39.8 µM [inhibitor, single point]
Cc1ccc(S(=O)(=O)NCCC(=O)NCCN2CCCCCC2)cc1		inconclusive: 5.62 µM [inhibitor, single point]
Cc1ccc(CN2CCN(Cc3ccccc3C(F)(F)F)CC2)cc1		inconclusive: 10 µM [fluorescent, side channel, partial curve]
Cc1nc2cc(C(F)(F)F)ccc2n1CCNc1nc(-c2cc(Cl)c(N)c(Cl)c2)cs1		inconclusive: 12.6 µM [quencher, side channel, partial curve]
COc1ccc(Cn2c(=N)c(C(=O)NCC3CCCO3)cc3c(=O)n4ccccc4nc32)cc1 (configuration not stated)	inactive: -11.8%	
COc1ccc(-n2c(O)c(/C=N/n3cnnc3)c3ccccc3c2=O)cc1		inconclusive: 22.4 µM [quencher, side channel, single point]
O=C(C1=C[C@H](c2ccc(C(F)(F)F)cc2)C[C@H](OCCCCO)O1)N1CCN(Cc2ccccc2)CC1		inconclusive: 11.2 µM [fluorescent, side channel, partial curve]

SMILES	FP activity change, negative = inhibition	Potency
COc1ccccc1C(=O)N(CCN(C)C)c1nc2cc(C)cc(C)c2s1		inconclusive: 10 µM [fluorescent, side channel, partial curve]
Cc1ccsc1/C=C/C1=Cc2c(sc(NC(=O)CSc3n[nH]c(N)n3)c2C#N)C(C)(C)C1		inconclusive: 39.8 µM [quencher, side channel, single point]
Cc1nc2sc(C#N)c(N)c2c2c1CCCC2	inactive: 4.84%	
COCCN(C(=O)C(C)C)c1nnc(-c2ccc(C(C)(C)C)cc2)s1		inconclusive: 2.24 µM [fluorescent, side channel, full curve]
N#Cc1c(N2CCCC(O)C2)nc(N)c2c(N)nc3c(c12)CC(=O)N3C12CC3CC(CC(C3)C1)C2 (configuration not stated)		inconclusive: 31.6 µM [quencher, side channel, single point]
COc1ccc(C(=O)NCCOc2ccccc2Cl)c(OC)c1OC		inconclusive: 28.2 µM [inhibitor, partial curve]
O=C(c1ccc(Br)cc1)N(Cc1nc2ccccc2c(=O)[nH]1)C1CCCC1		inconclusive: 3.98 µM [fluorescent, side channel, partial curve]
Cc1cc(C(=O)CCC(=O)N2CCN(c3ccccc3F)CC2)c(C)s1		inconclusive: 10 µM [fluorescent, side channel, partial curve]
COc1ccc([N+](=O)[O-])cc1C1NN=C(c2ccccc2O)S1 (configuration not stated)		inconclusive: 8.91 µM [quencher, partial curve]
COc1ccc(Nc2oc(-c3cccs3)nc2C#N)cc1		inconclusive: 31.6 µM [quencher, side channel, single point]
CCOC(=O)c1ccc2[nH]c3c(c2c1)CCCC3C(=O)OCC (configuration not stated)	inactive: 21.5%	
CCCCS(=O)(=O)N1C2=NC(C(=O)OC)=C(C(=O)OC)[C@@H]3Nc4ccccc4[C@]23C[C@H]1C(=O)OC	inactive: -8.48% [at 11.7 µM]	
O=C(Cn1cncc1-c1ccc([N+](=O)[O-])cc1)Nc1ccccc1F		inconclusive: 35.5 µM [quencher, side channel, single point]
CCOc1ccccc1Nc1cc(C)c2cccc(C)c2n1		inconclusive: 7.08 µM [quencher, side channel, partial curve]
Cc1ccc(C)c(C(=O)CN2C(=O)c3ccccc3S2(=O)=O)c1		inconclusive: 12.6 µM [inhibitor, partial curve]
CC(C)NC(=O)c1ccccc1N(Cc1ccccc1)S(C)(=O)=O	inactive: 10.6%	
CCOC(=O)C(CC)n1cnc2c(nnn2-c2cccc(OC)c2)c1=O (configuration not stated)		inconclusive: 2.51 µM [inhibitor, full curve]
O=C(OCC(=O)N1CCCCC1)c1cc(NS(=O)(=O)c2ccc(Cl)c([N+](=O)[O-])c2)ccc1O		inconclusive: 28.2 µM [quencher, side channel, single point]
